Results are given in words; binding and its absence hold for the method and conditions named. Binding seen in cells or lysates may run through a third protein. Some results given as binding are weak or reduced against the parent protein; the word gives no strength. For some of these results: Tags and fused reporters may be left off the sequences shown.
Legend:
[1] = molecular target: T1, GST-TRIM31 (human) (UniProt Q9BZY9); assay: pull-down
T1 sequence: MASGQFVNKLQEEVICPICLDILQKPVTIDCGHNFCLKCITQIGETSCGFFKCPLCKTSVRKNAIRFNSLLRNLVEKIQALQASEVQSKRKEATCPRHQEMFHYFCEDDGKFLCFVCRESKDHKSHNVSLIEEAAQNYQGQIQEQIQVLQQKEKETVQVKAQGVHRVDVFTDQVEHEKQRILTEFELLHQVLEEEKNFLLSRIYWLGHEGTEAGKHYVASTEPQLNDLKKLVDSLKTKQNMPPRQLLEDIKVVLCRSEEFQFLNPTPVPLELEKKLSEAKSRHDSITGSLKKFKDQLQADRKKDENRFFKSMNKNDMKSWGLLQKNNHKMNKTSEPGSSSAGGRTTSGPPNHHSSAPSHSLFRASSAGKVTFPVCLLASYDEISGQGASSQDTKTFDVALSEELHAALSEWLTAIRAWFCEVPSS

Chains of the proteins cited; added tags and fusions are not shown. Residues count along the entry.
UniProt P03452, residues 18-565: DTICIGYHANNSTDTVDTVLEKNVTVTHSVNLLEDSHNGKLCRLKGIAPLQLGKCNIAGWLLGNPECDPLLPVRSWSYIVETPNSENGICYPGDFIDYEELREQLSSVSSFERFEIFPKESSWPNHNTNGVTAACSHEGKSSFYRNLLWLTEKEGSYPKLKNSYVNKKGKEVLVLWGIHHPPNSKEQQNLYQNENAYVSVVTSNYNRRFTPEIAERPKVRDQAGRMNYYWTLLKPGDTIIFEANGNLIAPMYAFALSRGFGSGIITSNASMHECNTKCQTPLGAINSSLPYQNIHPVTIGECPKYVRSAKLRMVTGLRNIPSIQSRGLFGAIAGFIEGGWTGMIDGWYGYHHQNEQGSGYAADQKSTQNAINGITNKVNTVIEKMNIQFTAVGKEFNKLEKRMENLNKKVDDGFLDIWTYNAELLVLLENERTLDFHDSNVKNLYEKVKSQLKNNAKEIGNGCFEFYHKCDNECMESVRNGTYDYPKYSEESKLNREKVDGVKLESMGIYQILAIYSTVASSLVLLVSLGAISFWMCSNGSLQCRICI
UniProt P03431: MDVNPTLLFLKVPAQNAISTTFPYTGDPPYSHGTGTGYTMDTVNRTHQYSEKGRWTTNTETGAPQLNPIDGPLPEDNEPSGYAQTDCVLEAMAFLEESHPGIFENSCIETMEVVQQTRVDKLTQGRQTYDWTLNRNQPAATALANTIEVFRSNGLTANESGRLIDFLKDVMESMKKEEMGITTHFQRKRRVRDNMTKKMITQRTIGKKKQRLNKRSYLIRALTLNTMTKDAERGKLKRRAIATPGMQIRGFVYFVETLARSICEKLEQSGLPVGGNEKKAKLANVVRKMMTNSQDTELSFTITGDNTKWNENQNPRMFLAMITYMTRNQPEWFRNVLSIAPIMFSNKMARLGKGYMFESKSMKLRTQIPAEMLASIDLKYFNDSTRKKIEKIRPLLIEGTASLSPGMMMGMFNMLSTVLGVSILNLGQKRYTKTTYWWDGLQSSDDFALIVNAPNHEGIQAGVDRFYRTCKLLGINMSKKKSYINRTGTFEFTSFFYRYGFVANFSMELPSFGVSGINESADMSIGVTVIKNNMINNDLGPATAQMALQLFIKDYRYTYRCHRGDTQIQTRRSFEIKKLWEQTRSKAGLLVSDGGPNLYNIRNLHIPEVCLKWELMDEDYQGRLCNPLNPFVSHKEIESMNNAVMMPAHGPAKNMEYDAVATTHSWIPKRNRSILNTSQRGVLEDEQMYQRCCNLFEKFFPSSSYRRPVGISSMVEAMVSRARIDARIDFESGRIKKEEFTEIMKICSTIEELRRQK
UniProt Q7Z434: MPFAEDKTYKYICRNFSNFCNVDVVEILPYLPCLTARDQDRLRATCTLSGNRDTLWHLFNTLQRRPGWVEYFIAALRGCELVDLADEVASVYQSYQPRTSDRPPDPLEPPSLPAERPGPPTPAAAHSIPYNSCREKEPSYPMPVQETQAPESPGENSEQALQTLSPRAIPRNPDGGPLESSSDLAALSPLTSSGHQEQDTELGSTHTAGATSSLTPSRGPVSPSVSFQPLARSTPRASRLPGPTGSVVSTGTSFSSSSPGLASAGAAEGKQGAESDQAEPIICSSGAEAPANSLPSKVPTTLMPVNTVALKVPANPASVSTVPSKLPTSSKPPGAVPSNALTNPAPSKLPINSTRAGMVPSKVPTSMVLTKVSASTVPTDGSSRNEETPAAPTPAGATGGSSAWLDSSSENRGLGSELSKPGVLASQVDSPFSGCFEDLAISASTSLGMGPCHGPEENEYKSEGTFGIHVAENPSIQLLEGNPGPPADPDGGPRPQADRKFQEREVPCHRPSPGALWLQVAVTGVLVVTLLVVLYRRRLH
UniProt P03468: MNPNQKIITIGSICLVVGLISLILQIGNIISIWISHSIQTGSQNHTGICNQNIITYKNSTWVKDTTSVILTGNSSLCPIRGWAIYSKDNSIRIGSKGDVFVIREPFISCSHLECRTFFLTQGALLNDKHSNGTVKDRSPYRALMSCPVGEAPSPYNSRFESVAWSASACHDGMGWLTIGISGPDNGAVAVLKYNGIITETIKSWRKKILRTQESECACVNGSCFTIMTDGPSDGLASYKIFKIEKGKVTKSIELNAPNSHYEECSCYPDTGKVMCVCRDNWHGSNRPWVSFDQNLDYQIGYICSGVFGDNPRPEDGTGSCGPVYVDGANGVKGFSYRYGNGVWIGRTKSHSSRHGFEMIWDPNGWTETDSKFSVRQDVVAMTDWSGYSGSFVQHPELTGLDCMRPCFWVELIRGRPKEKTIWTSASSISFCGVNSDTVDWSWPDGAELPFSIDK

[2] = molecular target: T2, Myc-TRIM31 (human) (UniProt Q9BZY9); assay: co-IP
T2 sequence: T1 sequence

[3] = molecular target: T3, TRIM31 (wild type, as in Fig. 4B, 4C and S2B; tag not given) (human) (UniProt Q9BZY9); assay: co-IP
T3 sequence: T1 sequence

[4] = molecular target: T4, Flag-TRIM31 (tripartite motif protein 31) (human) (UniProt Q9BZY9); assay: co-IP
T4 sequence: T1 sequence

[5] = molecular target: T5, endogenous TRIM31 (human (endogenous in HEK293T)) (UniProt Q9BZY9); assay: co-IP
T5 sequence: T1 sequence

Row | Substance | binding [1] | binding [2] | binding [3] | binding [4] | binding [5]
1 | Flag-tagged HA from PR8-H1N1 (from UniProt P03452) | binds | binds | binds | – | –
2 | Flag-tagged PB1 from PR8-H1N1 (from UniProt P03431 1-757) | binds | binds | binds | – | –
3 | HA-MAVS (mitochondrial antiviral signaling protein) (from UniProt Q7Z434 1-540) | – | binds | – | – | –
4 | M1 of PR8/H1N1, from infection (from UniProt P03485 1-252) | – | – | – | no binding | –
5 | NA of PR8/H1N1, from infection (from UniProt P03468 1-454) | – | – | – | no binding | –
6 | basic polymerase 1 (PB1) of PR8/H1N1, from infection (from UniProt P03431 1-757) | – | – | – | binds | binds
7 | hemagglutinin (HA) of PR8/H1N1, from infection (from UniProt P03452) | – | – | – | binds | binds
